In the supplement of paper PMC6089552:
About 300 (9.4%) of roughly 3,200 compounds showed activity. The entries are a selection whose mix differs from that of the whole data set.

Test system: A673/TR/shEF
Experiment: cell viability (LOESS-normalised, relative to median of negative controls) (log2 ratio); higher = more viable cells (less compound effect), active = hit call of the paper (over 3 MAD below the median)
Details: treatment time: 72 h
Outline: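 For three days, A673/TR/shEF Ewing sarcoma cells in 384-well plates (1,500 per well) were treated with library compounds at two or more concentrations or with DMSO controls, after doxycycline had been added or withheld 24 h beforehand to induce EWS-FLI1 shRNA knockdown. Viability was read by CellTiter-Glo luminescence on an Envision reader. The data were LOESS-corrected per plate, divided by the median of negative controls and log2-transformed.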

[1] = 2.5 µM, library screen: screen1, EWS-FLI1 expression: high (no doxycycline)
[2] = 2.5 µM, library screen: screen1, EWS-FLI1 expression: low (doxycycline-induced shRNA knockdown)
[3] = 0.25 µM, library screen: screen2, EWS-FLI1 expression: high (no doxycycline)
[4] = 0.25 µM, library screen: screen2, EWS-FLI1 expression: low (doxycycline-induced shRNA knockdown)
[5] = 2.5 µM, library screen: screen2, EWS-FLI1 expression: high (no doxycycline)
[6] = 2.5 µM, library screen: screen2, EWS-FLI1 expression: low (doxycycline-induced shRNA knockdown)
[7] = 0.25 µM, library screen: screen1, EWS-FLI1 expression: high (no doxycycline)
[8] = 0.25 µM, library screen: screen1, EWS-FLI1 expression: low (doxycycline-induced shRNA knockdown)
[9] = 0.103 µM, library screen: screen3, EWS-FLI1 expression: high (no doxycycline)
[10] = 0.103 µM, library screen: screen3, EWS-FLI1 expression: low (doxycycline-induced shRNA knockdown)
[11] = 0.308 µM, library screen: screen3, EWS-FLI1 expression: high (no doxycycline)
[12] = 0.308 µM, library screen: screen3, EWS-FLI1 expression: low (doxycycline-induced shRNA knockdown)
[13] = 0.926 µM, library screen: screen3, EWS-FLI1 expression: high (no doxycycline)
[14] = 0.926 µM, library screen: screen3, EWS-FLI1 expression: low (doxycycline-induced shRNA knockdown)
[15] = 2.8 µM, library screen: screen3, EWS-FLI1 expression: high (no doxycycline)
[16] = 2.8 µM, library screen: screen3, EWS-FLI1 expression: low (doxycycline-induced shRNA knockdown)
[17] = 8.3 µM, library screen: screen3, EWS-FLI1 expression: high (no doxycycline)
[18] = 8.3 µM, library screen: screen3, EWS-FLI1 expression: low (doxycycline-induced shRNA knockdown)
[19] = 25 µM, library screen: screen3, EWS-FLI1 expression: high (no doxycycline)
[20] = 25 µM, library screen: screen3, EWS-FLI1 expression: low (doxycycline-induced shRNA knockdown)
[21] = 0.025 µM, library screen: screen2, EWS-FLI1 expression: high (no doxycycline)
[22] = 0.025 µM, library screen: screen2, EWS-FLI1 expression: low (doxycycline-induced shRNA knockdown)
[23] = 25 µM, library screen: screen2, EWS-FLI1 expression: high (no doxycycline)
[24] = 25 µM, library screen: screen2, EWS-FLI1 expression: low (doxycycline-induced shRNA knockdown)

Measured: cell viability (log2)

CC(=O)OC1CCC2(C)C(CCC3C2CCC2(C)C(C4=CC(=O)OC4)C(OC(C)=O)CC32O)C1 (configuration not stated)
active: [1] -2.02 | [2] -2.26

O=C1C=CC(=O)C=C1
inactive: [3] 0.113 | [4] 0.0786 | [5] 0.21 | [6] 0.141

CC(C)[C@]12O[C@H]1[C@@H]1O[C@@]13[C@@]1(C)CCC4=C(COC4=O)[C@@H]1C[C@@H]1O[C@@]13C2=O
active: [7] -2.66 | [8] -3.01 | [1] -3.24 | [2] -2.91

CN(C)[C@@H]1C(=O)C(C(N)=O)=C(O)[C@@]2(O)C(=O)C3=C(O)c4c(O)cccc4[C@@](C)(O)[C@H]3[C@H](O)[C@@H]12
inactive: [9] 0.0702 | [10] 0.0143 | [7] 0.0991 | [8] 0.163 | [11] 0.0382 | [12] 0.159 | [13] 0.119 | [14] 0.101 | [1] 0.158 | [2] 0.172 | [15] 0.158 | [16] 0.126 | [17] 0.103 | [18] 0.0656 | [19] 0.0616 | [20] 0.0848

CN1C(=O)CCS(=O)(=O)C1c1ccc(Cl)cc1 (configuration not stated)
inactive: [7] 0.0501 | [8] 0.0344 | [3] 0.126 | [4] 0.114 | [1] 0.0851 | [2] 0.0868 | [5] 0.0874 | [6] 0.0761

CCCn1c(C)c(C(=O)c2cccc3ccccc23)c2ccccc21
inactive: [3] 0.213 | [4] 0.128 | [5] 0.0897 | [6] 0.055

C=C1C2CC[C@@]3(C)[C@H](c4ccoc4)OC(=O)C[C@]13O[C@H]1CC(=O)C(C)(C)[C@H](C(OC(C)=O)C(=O)OC)[C@@]21C (some centres not stated)
inactive: [7] 0.0428 | [8] 0.0583 | [1] 0.106 | [2] 0.119

O=P1(N(CCCl)CCCl)NCCCO1 (configuration not stated)
inactive: [21] 0.105 | [22] 0.0824 | [9] 0.146 | [10] 0.0804 | [7] 0.11 | [8] 0.163 | [3] 0.137 | [4] 0.0863 | [11] 0.0638 | [12] 0.0134 | [13] 0.0846 | [14] 0.061 | [1] 0.228 | [2] 0.17 | [5] 0.122 | [6] 0.0525 | [15] 0.114 | [16] 0.0823 | [17] 0.0653 | [18] 0.1 | [23] 0.0276 | [24] 0.165 | [19] 0.071 | [20] 0.141

O=C(O)Cc1cnc[nH]1
inactive: [7] 0.0706 | [8] 0.0477 | [3] 0.192 | [4] 0.0938 | [1] 0.1 | [2] 0.0842 | [5] 0.174 | [6] 0.0822

CNC(=O)Oc1ccccc1OC(C)C
inactive: [7] 0.0795 | [8] 0.0528 | [1] 0.177 | [2] 0.0381

C[C@](N)(CCP(=O)(O)O)C(=O)O
inactive: [3] 0.14 | [4] 0.14 | [5] 0.151 | [6] 0.0963

O=C(O)[C@@H]1CCN1
inactive: [3] 0.101 | [4] 0.092 | [5] 0.0671 | [6] 0.0609

CC(N)C(O)c1ccc(O)c(O)c1 (configuration not stated)
inactive: [7] 0.119 | [8] 0.0592 | [1] 0.146 | [2] 0.151

COc1ccc(CCN)cc1O
inactive: [3] 0.19 | [4] 0.105 | [5] 0.0411 | [6] 0.0823

CC(=O)O[C@@H]1CC[C@@]2(C)[C@@H](CC[C@@H]3[C@@H]2CC[C@]2(C)C(=O)CC[C@@H]32)C1
inactive: [7] 0.0923 | [8] 0.0254 | [1] 0.0362 | [2] 0.0893

COC(=O)c1cc2c(cn1)[nH]c1ccccc12
inactive: [3] 0.162 | [4] 0.0906 | [5] 0.145 | [6] 0.119

CCCN1CCO[C@@H]2c3cc(O)ccc3OC[C@H]21
inactive: [3] 0.263 | [4] 0.0533 | [5] 0.0947 | [6] 0.0737

COc1ccc2c(c1OC)C(=O)O[C@H]2[C@@H]1c2cc3c(cc2CCN1C)OCO3
inactive: [3] 0.0965 | [4] 0.0835 | [5] 0.18 | [6] 0.113

CO[C@H]1C[C@H](O[C@H]2CCC3(C=O)C4CCC5(C)C(C6=CC(=O)OC6)CCC5(O)C4CC[C@]3(O)C2)O[C@H](C)[C@H]1O (some centres not stated)
active: [7] -0.95 | [8] -1.15 | [1] -3.9 | [2] -3.2

CCCCCCCCCCCCCCCC[n+]1ccccc1
active: [1] -1.66 | [2] -2.21

CC[S+]([O-])CCSP(=O)(OC)OC (configuration not stated)
inactive: [7] 0.119 | [8] 0.0126 | [1] 0.119 | [2] 0.0247

CCOP(=S)(OCC)Oc1nc(Cl)c(Cl)cc1Cl
inactive: [7] 0.0497 | [8] 0.03 | [1] 0.0752 | [2] 0.0499

COP(=S)(OC)Oc1ccc(Sc2ccc(OP(=S)(OC)OC)cc2)cc1
inactive: [7] 0.0592 | [8] -0.158 | [1] 0.114 | [2] 0.0667

CNC(=O)N(C)c1nnc(C(C)(C)C)s1
inactive: [7] 0.107 | [8] 0.084 | [1] 0.11 | [2] 0.0508

C[C@]12CCC3C(CC[C@H]4C[C@H](O)CC[C@]34C)C1CC[C@@H]2C(=O)CO (some centres not stated)
inactive: [3] 0.139 | [4] 0.0931 | [5] 0.0348 | [6] 0.0492

CCC(=O)O[C@H]1CC[C@H]2[C@@H]3CCC4=CC(=O)CC[C@]4(C)[C@H]3CC[C@]12C
inactive: [9] 0.0398 | [10] 0.0836 | [7] 0.118 | [8] -0.0311 | [11] 0.0165 | [12] 0.0285 | [13] 0.0471 | [14] 0.0358 | [1] 0.154 | [2] 0.132 | [15] -0.0169 | [16] 0.0447 | [17] 0.0137 | [18] 0.0661 | [19] -0.0678 | [20] 0.113

COc1ccc(OC)c(C(O)C(C)N)c1 (configuration not stated)
inactive: [21] 0.185 | [22] 0.0992 | [7] 0.0166 | [8] -0.00492 | [3] 0.162 | [4] 0.105 | [1] 0.134 | [2] 0.0886 | [5] 0.162 | [6] 0.0903 | [23] 0.141 | [24] 0.0948

C[C@H]1CC[C@]2(NC1)O[C@H]1C[C@H]3[C@@H]4CC[C@H]5C[C@@H](O[C@@H]6O[C@H](CO)[C@H](O[C@@H]7O[C@H](CO)[C@@H](O)[C@H](O[C@@H]8OC[C@@H](O)[C@H](O)[C@H]8O)[C@H]7O[C@@H]7O[C@H](CO)[C@@H](O)[C@H](O)[C@H]7O)[C@H](O)[C@H]6O)CC[C@]5(C)[C@H]4CC[C@]3(C)[C@H]1[C@@H]2C
active: [1] -1.17 | [2] -1.98

COc1cc2c(cc1O)C[C@H]1c3c(cc(O)c(OC)c3-2)CCN1C
inactive: [7] 0.0548 | [8] 0.0293 | [1] 0.166 | [2] 0.173

CCOC(=O)NC1=C(N2CC2)C(=O)C(NC(=O)OCC)=C(N2CC2)C1=O
active: [23] -3.5 | [24] -0.288
inactive: [21] -0.0137 | [22] -0.0126 | [7] 0.102 | [8] 0.0213 | [3] 0.153 | [4] -0.00616 | [1] 0.0672 | [2] 0.107 | [5] -0.0475 | [6] 0.0995

CC(O)C(C)OC(=O)[C@@H]1C[C@@H]2c3cccc4c3c(cn4C(C)C)C[C@H]2N(C)C1 (some centres not stated)
inactive: [3] 0.174 | [4] 0.171 | [5] 0.12 | [6] 0.112

c1ccc2sc(C3(N4CCCCC4)CCCCC3)cc2c1
inactive: [3] 0.21 | [4] 0.0848 | [5] 0.113 | [6] 0.152

C[N+]1(C)C2CCC1CC(OC(=O)c1c[nH]c3ccccc13)C2 (configuration not stated)
inactive: [3] 0.0789 | [4] 0.116 | [5] 0.126 | [6] 0.165

Clc1ccc(C(c2ccc(Cl)cc2)C(Cl)(Cl)Cl)cc1
inactive: [7] 0.0479 | [8] 0.0234 | [1] 0.0726 | [2] 0.147

C[N+]1(C)CCCC(OC(=O)C(O)(c2ccccc2)c2ccccc2)C1 (configuration not stated)
inactive: [7] 0.0362 | [8] 0.021 | [1] 0.103 | [2] 0.00347

NC1CCc2cc(O)c(O)cc2C1 (configuration not stated)
inactive: [3] 0.279 | [4] 0.127 | [5] 0.204 | [6] 0.136

C[C@]12CCC(=O)C=C1CC[C@@H]1[C@@H]2CC[C@]2(C)C(=O)CC[C@@H]12
inactive: [3] 0.112 | [4] 0.107 | [5] 0.0682 | [6] 0.136

COc1cccc(CN2CCN(Cc3ccccc3OC)CC2)c1
inactive: [7] 0.108 | [8] 0.0202 | [1] 0.149 | [2] -0.0141

C=CCN1CC[C@@]2(C)c3cc(O)ccc3CC1[C@@H]2C
inactive: [3] 0.194 | [4] 0.135 | [5] 0.028 | [6] 0.047

CCCC[N+]1(C)C2CC(OC(=O)C(CO)c3ccccc3)CC1C1OC12 (configuration not stated)
inactive: [3] 0.152 | [4] 0.0245 | [5] 0.152 | [6] 0.054
